{"source": "the supplement of paper PMC8728848", "binders": {"B1": {"name": "3FTT (Staphylococcus aureus), Q5HCZ5 (protein)", "chain": "MTEKEKMLAEKWYDANFDQYLINERARAKDICFELNHTRPSATNKRKELIDQLFQTTTDNVSISIPFDTDYGWNVKLGKNVYVNTNCYFMDGGQITIGDNVFIGPNCGFYTATHPLNFHHRNEGFEKAGPIHIGSNTWFGGHVAVLPGVTIGEGSVIGAGSVVTKDIPPHSLAVGNPCKVVRKIDNDLPSETLNDETIK"}}, "assay_in_all_cases": "glycan array binding signal (z-score within array); higher = stronger binding", "details_in_all_cases": "glycan notation: IUPAC condensed, linker removed", "key": {"[1]": {"biological_target": "Gal3S(b1-3)[Fuc(a1-4)]GlcNAc", "outline": "(§1)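 Columns mapping to the same glycan were averaged after glycan names were converted to IUPAC-condensed notation. The data come from 3228 arrays in the Consortium for Functional Glycomics database, limited to those with an available protein sequence. Binding is reported as a within-array Z-score averaged across arrays of one protein sequence and across linkers.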"}, "Gal3S(b1-4)Glc": {"biological_target": "Gal3S(b1-4)Glc", "outline": "as §1"}, "Gal3S(b1-4)Glc6S": {"biological_target": "Gal3S(b1-4)Glc6S", "outline": "as §1"}, "Gal3S(b1-4)GlcNAc": {"biological_target": "Gal3S(b1-4)GlcNAc", "outline": "as §1"}, "Gal3S(b1-4)GlcNAc6S": {"biological_target": "Gal3S(b1-4)GlcNAc6S", "outline": "as §1"}, "[2]": {"biological_target": "Gal3S(b1-4)[Fuc(a1-3)]Glc", "outline": "as §1"}, "[3]": {"biological_target": "Gal3S(b1-4)[Fuc(a1-3)]Glc6S", "outline": "as §1"}, "Gal3S4S(b1-4)GlcNAc": {"biological_target": "Gal3S4S(b1-4)GlcNAc", "outline": "as §1"}, "Gal3S6S(b1-4)GlcNAc": {"biological_target": "Gal3S6S(b1-4)GlcNAc", "outline": "as §1"}, "Gal3S6S(b1-4)GlcNAc6S": {"biological_target": "Gal3S6S(b1-4)GlcNAc6S", "outline": "as §1"}, "Gal4S(b1-4)GlcNAc": {"biological_target": "Gal4S(b1-4)GlcNAc", "outline": "as §1"}, "Gal4S6S(b1-4)GlcNAc": {"biological_target": "Gal4S6S(b1-4)GlcNAc", "outline": "as §1"}, "Gal6S(b1-3)GlcNAc": {"biological_target": "Gal6S(b1-3)GlcNAc", "outline": "as §1"}, "Gal6S(b1-3)GlcNAc6S": {"biological_target": "Gal6S(b1-3)GlcNAc6S", "outline": "as §1"}, "Gal6S(b1-4)Glc": {"biological_target": "Gal6S(b1-4)Glc", "outline": "as §1"}, "Gal6S(b1-4)Glc6S": {"biological_target": "Gal6S(b1-4)Glc6S", "outline": "as §1"}, "Gal6S(b1-4)GlcNAc": {"biological_target": "Gal6S(b1-4)GlcNAc", "outline": "as §1"}, "Gal6S(b1-4)GlcNAc6S": {"biological_target": "Gal6S(b1-4)GlcNAc6S", "outline": "as §1"}, "GalNAc(a1-3)Gal": {"biological_target": "GalNAc(a1-3)Gal", "outline": "as §1"}, "GalNAc(a1-3)GalNAc": {"biological_target": "GalNAc(a1-3)GalNAc", "outline": "as §1"}, "[4]": {"biological_target": "GalNAc(a1-3)GalNAc(b1-3)Gal(a1-4)Gal(b1-4)Glc", "outline": "as §1"}, "[5]": {"biological_target": "GalNAc(a1-3)GalNAc(b1-3)Gal(a1-4)Gal(b1-4)GlcNAc", "outline": "as §1"}, "GalNAc(b1-3)Gal": {"biological_target": "GalNAc(b1-3)Gal", "outline": "as §1"}, "[6]": {"biological_target": "GalNAc(b1-3)Gal(a1-4)Gal(b1-4)GlcNAc", "outline": "as §1"}, "[7]": {"biological_target": "GalNAc(b1-3)Gal(a1-4)Gal(b1-4)GlcNAc(b1-3)Gal(b1-4)Glc", "outline": "as §1"}, "[8]": {"biological_target": "GalNAc(b1-3)Gal(a1-6)Gal(b1-4)Glc", "outline": "as §1"}, "GalNAc(b1-3)GalNAc": {"biological_target": "GalNAc(b1-3)GalNAc", "outline": "as §1"}, "GalNAc(b1-4)Gal(b1-4)Glc": {"biological_target": "GalNAc(b1-4)Gal(b1-4)Glc", "outline": "as §1"}, "GalNAc(b1-4)GlcNAc": {"biological_target": "GalNAc(b1-4)GlcNAc", "outline": "as §1"}, "[9]": {"biological_target": "GalNAc(b1-4)GlcNAc(b1-2)Man(a1-3)[GalNAc(b1-4)GlcNAc(b1-2)Man(a1-6)]Man(b1-4)GlcNAc(b1-4)GlcNAc", "outline": "as §1"}, "GalNAc(b1-6)GalNAc": {"biological_target": "GalNAc(b1-6)GalNAc", "outline": "as §1"}, "Glc(a1-4)Glc": {"biological_target": "Glc(a1-4)Glc", "outline": "as §1"}, "[10]": {"biological_target": "Glc(a1-4)Glc(a1-4)Glc(a1-4)Glc", "outline": "as §1"}, "Glc(a1-6)Glc(a1-6)Glc": {"biological_target": "Glc(a1-6)Glc(a1-6)Glc", "outline": "as §1"}, "[11]": {"biological_target": "Glc(a1-6)Glc(a1-6)Glc(a1-6)Glc", "outline": "as §1"}, "Glc(b1-4)Glc": {"biological_target": "Glc(b1-4)Glc", "outline": "as §1"}, "Glc(b1-6)Glc": {"biological_target": "Glc(b1-6)Glc", "outline": "as §1"}, "GlcA(b1-3)Gal": {"biological_target": "GlcA(b1-3)Gal", "outline": "as §1"}, "GlcA(b1-3)GlcNAc": {"biological_target": "GlcA(b1-3)GlcNAc", "outline": "as §1"}, "GlcA(b1-6)Gal": {"biological_target": "GlcA(b1-6)Gal", "outline": "as §1"}, "[12]": {"biological_target": "GlcNAc(a1-3)Gal(b1-4)GlcNAc", "outline": "as §1"}, "[13]": {"biological_target": "GlcNAc(a1-4)Gal(b1-3)GlcNAc", "outline": "as §1"}, "[14]": {"biological_target": "GlcNAc(a1-4)Gal(b1-4)GalNAc", "outline": "as §1"}, "[15]": {"biological_target": "GlcNAc(a1-4)Gal(b1-4)GlcNAc", "outline": "as §1"}, "[16]": {"biological_target": "GlcNAc(a1-4)Gal(b1-4)GlcNAc(b1-3)Gal(b1-4)Glc", "outline": "as §1"}}, "note": "This is one part of the list."}
{"binder": "B1", "values": [{"measurement": "glycan array binding signal (z-score)", "setting": "[1]", "value": -0.169}, {"measurement": "glycan array binding signal (z-score)", "setting": "Gal3S(b1-4)Glc", "value": 0.179}, {"measurement": "glycan array binding signal (z-score)", "setting": "Gal3S(b1-4)Glc6S", "value": 0.798}, {"measurement": "glycan array binding signal (z-score)", "setting": "Gal3S(b1-4)GlcNAc", "value": 0.036}, {"measurement": "glycan array binding signal (z-score)", "setting": "Gal3S(b1-4)GlcNAc6S", "value": -0.115}, {"measurement": "glycan array binding signal (z-score)", "setting": "[2]", "value": -0.147}, {"measurement": "glycan array binding signal (z-score)", "setting": "[3]", "value": -0.009}, {"measurement": "glycan array binding signal (z-score)", "setting": "Gal3S4S(b1-4)GlcNAc", "value": -0.133}, {"measurement": "glycan array binding signal (z-score)", "setting": "Gal3S6S(b1-4)GlcNAc", "value": -0.001}, {"measurement": "glycan array binding signal (z-score)", "setting": "Gal3S6S(b1-4)GlcNAc6S", "value": 0.149}, {"measurement": "glycan array binding signal (z-score)", "setting": "Gal4S(b1-4)GlcNAc", "value": 0.051}, {"measurement": "glycan array binding signal (z-score)", "setting": "Gal4S6S(b1-4)GlcNAc", "value": -0.099}, {"measurement": "glycan array binding signal (z-score)", "setting": "Gal6S(b1-3)GlcNAc", "value": 0.147}, {"measurement": "glycan array binding signal (z-score)", "setting": "Gal6S(b1-3)GlcNAc6S", "value": -0.183}, {"measurement": "glycan array binding signal (z-score)", "setting": "Gal6S(b1-4)Glc", "value": -0.025}, {"measurement": "glycan array binding signal (z-score)", "setting": "Gal6S(b1-4)Glc6S", "value": -0.13}, {"measurement": "glycan array binding signal (z-score)", "setting": "Gal6S(b1-4)GlcNAc", "value": -0.304}, {"measurement": "glycan array binding signal (z-score)", "setting": "Gal6S(b1-4)GlcNAc6S", "value": -0.226}, {"measurement": "glycan array binding signal (z-score)", "setting": "GalNAc(a1-3)Gal", "value": 0.016}, {"measurement": "glycan array binding signal (z-score)", "setting": "GalNAc(a1-3)GalNAc", "value": -0.129}, {"measurement": "glycan array binding signal (z-score)", "setting": "[4]", "value": -0.185}, {"measurement": "glycan array binding signal (z-score)", "setting": "[5]", "value": -0.01}, {"measurement": "glycan array binding signal (z-score)", "setting": "GalNAc(b1-3)Gal", "value": -0.332}, {"measurement": "glycan array binding signal (z-score)", "setting": "[6]", "value": -0.016}, {"measurement": "glycan array binding signal (z-score)", "setting": "[7]", "value": 0.029}, {"measurement": "glycan array binding signal (z-score)", "setting": "[8]", "value": -0.191}, {"measurement": "glycan array binding signal (z-score)", "setting": "GalNAc(b1-3)GalNAc", "value": -0.264}, {"measurement": "glycan array binding signal (z-score)", "setting": "GalNAc(b1-4)Gal(b1-4)Glc", "value": -0.095}, {"measurement": "glycan array binding signal (z-score)", "setting": "GalNAc(b1-4)GlcNAc", "value": 0.059}, {"measurement": "glycan array binding signal (z-score)", "setting": "[9]", "value": 5.95}, {"measurement": "glycan array binding signal (z-score)", "setting": "GalNAc(b1-6)GalNAc", "value": 0.17}, {"measurement": "glycan array binding signal (z-score)", "setting": "Glc(a1-4)Glc", "value": -0.061}, {"measurement": "glycan array binding signal (z-score)", "setting": "[10]", "value": 0.344}, {"measurement": "glycan array binding signal (z-score)", "setting": "Glc(a1-6)Glc(a1-6)Glc", "value": -0.118}, {"measurement": "glycan array binding signal (z-score)", "setting": "[11]", "value": 0.216}, {"measurement": "glycan array binding signal (z-score)", "setting": "Glc(b1-4)Glc", "value": -0.457}, {"measurement": "glycan array binding signal (z-score)", "setting": "Glc(b1-6)Glc", "value": -0.054}, {"measurement": "glycan array binding signal (z-score)", "setting": "GlcA(b1-3)Gal", "value": -0.055}, {"measurement": "glycan array binding signal (z-score)", "setting": "GlcA(b1-3)GlcNAc", "value": -0.15}, {"measurement": "glycan array binding signal (z-score)", "setting": "GlcA(b1-6)Gal", "value": -0.157}, {"measurement": "glycan array binding signal (z-score)", "setting": "[12]", "value": -0.033}, {"measurement": "glycan array binding signal (z-score)", "setting": "[13]", "value": 0.016}, {"measurement": "glycan array binding signal (z-score)", "setting": "[14]", "value": 0.301}, {"measurement": "glycan array binding signal (z-score)", "setting": "[15]", "value": 0.089}, {"measurement": "glycan array binding signal (z-score)", "setting": "[16]", "value": 0.079}]}
